According to PubChem BioAssay AID1159614 (National Center for Advancing Translational Sciences (NCATS), 2016):
Hit rate of the full screen: of about 45,000 compounds, about 65 (0.1%) were called active. Calls come from the whole dose curve; as a rule, active = well fitted activation curve with a large enough effect; inconclusive = small, poorly fitted or top-dose-only effect; inactive = no such curve, though single readings can be large or run the other way. The list shows a part of the results.

Molecular target: Galactocerebrosidase (Homo sapiens) (UniProt P54803)
Test: A Novel Cell-Based Assay to Identify Small Molecules for B -Galactocerebrosidase; note: 0% is about no effect; nearly all actives have a fitted effect of over 65% in size
Details: 145M-Twi-hGALC-G270D cells (Twitcher mouse brain line with human GALC G270D), HMU-beta-Gal fluorescence, 48 h; series mostly up to 57.5 µM; activation: at the top concentration
Summary of the method: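 Live 145M-Twi cells (Twitcher mouse brain-derived, GALC-null) stably expressing human GALC-G270D, with a wild-type GALC line, were compound-treated. Residual GALC activity was then read as fluorescence from 0.1 mM final HMU-β-gal at pH 5.2; higher signal means activation.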

Chain of UniProt P54803 (P54803 whole entry, looked up): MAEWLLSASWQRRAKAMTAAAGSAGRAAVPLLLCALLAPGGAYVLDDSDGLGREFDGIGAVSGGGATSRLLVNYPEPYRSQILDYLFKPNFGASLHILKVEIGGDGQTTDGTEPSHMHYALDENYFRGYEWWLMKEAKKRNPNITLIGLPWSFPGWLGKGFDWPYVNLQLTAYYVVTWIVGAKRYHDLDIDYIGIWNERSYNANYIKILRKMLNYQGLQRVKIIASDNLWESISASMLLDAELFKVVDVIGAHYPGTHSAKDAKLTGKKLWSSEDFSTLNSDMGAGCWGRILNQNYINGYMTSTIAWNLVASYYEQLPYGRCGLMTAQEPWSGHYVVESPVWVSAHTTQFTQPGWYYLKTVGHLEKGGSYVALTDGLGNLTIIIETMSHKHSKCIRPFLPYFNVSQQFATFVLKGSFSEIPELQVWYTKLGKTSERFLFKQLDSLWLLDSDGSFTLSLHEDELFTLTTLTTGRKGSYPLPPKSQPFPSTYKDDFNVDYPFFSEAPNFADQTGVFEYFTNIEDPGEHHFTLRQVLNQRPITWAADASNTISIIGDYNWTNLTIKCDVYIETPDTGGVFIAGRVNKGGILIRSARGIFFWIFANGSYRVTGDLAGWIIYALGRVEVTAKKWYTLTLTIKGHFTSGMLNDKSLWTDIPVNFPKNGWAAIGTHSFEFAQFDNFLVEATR

activation, inactive:
CCS(=O)(=O)c1ncc(N(Cc2ccco2)Cc2sccc2C)c(C(=O)Nc2ccc(C)cc2C)n1 -5.91%
CCCOc1ccc(C(=O)Nc2cccc(NC(=O)c3cccc(Cl)c3)c2)cc1 -16%
CC(C)c1ccc(-c2nnc3n(CCc4ccccc4)c(=O)c4ccccc4n23)cc1 -16.9%
Cc1ccc(CNC(=O)CCc2c(C)nc3nc(CNC(=O)OC(C)(C)C)nn3c2C)cc1 -12.8%
O=C(COc1ccccc1-c1nnc(-c2ccccc2)o1)Nc1ccc(Br)cc1F 16.8%
CC(=O)c1cccc(Nc2ccc3cc(S(=O)(=O)N4CCC(C)CC4)ccc3n2)c1 0.92%
CCC(=O)N1CCc2cc(S(=O)(=O)NCCC(=O)Nc3ccc(C)cc3)ccc21 -22.1%
CC(=O)c1ccc(NS(=O)(=O)c2cc(-c3cc(C)no3)ccc2C)cc1 -13.3%
CCCNC(=O)CCNS(=O)(=O)c1ccc2c(c1)c(=O)n(C)c(=O)n2C -13.1%
COc1cc(C(=O)n2nc(-c3ccco3)nc2NCc2ccc(Cl)cc2)cc(OC)c1OC -9.73%
Cc1cccc(NCc2nc3ccccc3n2CCOc2ccccc2C)c1 -11.2%
COc1ccccc1OCC(=O)Nc1nc2c(s1)CC(C)CC2 (stereo unspecified) -1.02%
Cc1ccc2nc(-c3ccc(Cl)cc3)cc(C(=O)OCC(=O)c3ccccc3)c2c1 -13%
CCSc1ncc(Cl)c(C(=O)Nc2c(C(=O)Nc3cccc(C)c3)oc3ccccc23)n1 -2.3%
Cc1cccc(-c2nc(CSc3nncn4c3cc3oc(C)cc34)c(C)o2)c1 -10.6%
COc1ccc(C(=O)NCC(c2ccc(N(C)C)cc2)N2CCCC2)c(OC)c1 (stereo unspecified) -15.4%
CCC(Cn1nnc2ccccc2c1=O)NC(=O)Nc1ccc(C)cc1C (stereo unspecified) 8.77%
COc1ccc(C(=O)NCCc2sc(-c3ccc(F)cc3)nc2C)cc1OC -5.31%
CC1CCC(NC(=O)C2(C)Cc3ccccc3C(=O)N2Cc2ccc(F)cc2)CC1 (stereo unspecified) -8.68%
CCc1ccc(C2Sc3ccccc3NC3=C2C(=O)c2ccccc23)cc1 (stereo unspecified) -10.1%
COc1ccc(NC(=O)c2sc3nc4c(cc3c2N)CN(Cc2ccccc2)CC4)cc1 -28%
CCC(C(=O)NC1CCCCC1)n1c(SCc2ccc(F)cc2)nc2ccncc21 (stereo unspecified) -21.2%
Nc1nc(N)c2nc(-c3ccccc3)c(N)nc2n1 -15.3%
CC(C)CCNC(=O)c1ccc2c(c1)N(Cc1cccc(Cl)c1)C(=O)c1ccccc1S2 -6.4%
CCCC(=O)n1nc(-c2ccco2)nc1NCc1ccccc1Cl -10.8%
O=C(Nc1nnc(S(=O)(=O)N2CCOCC2)s1)c1ccccc1Cl -19.9%
Cc1cc2nn(-c3ccc(F)cc3)nc2cc1NC(=O)c1cccc2ccccc12 -9.7%
O=C(Nc1ccc(F)c(Cl)c1)c1cc(S(=O)(=O)N2CCc3ccccc3C2)ccc1F -2.5%
O=C(Nc1ccc2nc(SCc3ccccc3)sc2c1)c1ccccc1F -9.32%
O=C(Nc1ccc2oc(-c3cccnc3)nc2c1)c1ccc(-c2ccc(OC(F)(F)F)cc2)o1 -13.5%
COc1ccc(N2CCN(C(=O)CN3C(=O)CSc4c3c(C)nn4-c3ccccc3)CC2)cc1 -13.3%
Cc1ccc(OCC(=O)Nc2ccc3c(c2)nc(CCNC(=O)c2ccco2)n3C)cc1 -15.3%
COc1ccc(OC)c(CCNC(=O)c2cc3c(=O)oc4ccc(C)cc4c3s2)c1 -27.8%
CC(=O)Nc1ccc(NC(=O)C2CCCN2S(=O)(=O)c2ccc3c(c2)CCCC(=O)N3)cc1 (stereo unspecified) -4.17%
CCn1c(=O)c(=O)n(CC)c2cc(N3CCCCC3)c(NC(=O)c3ccc(Cl)cc3)cc21 -18.3%
COc1ccc(CNC(=O)CN2N=C(c3ccccc3)CCC2=O)c(OC)c1 -7.96%
COCCCNc1nc2cc(OC)c(OC)cc2c2nc(-c3ccccc3)nn12 6.54%
Cc1ccccc1N1CC(C(=O)Nc2ccc(Br)cc2)CC1=O (stereo unspecified) -16%
COc1ccc(C(=O)NCc2nnc(SCC(=O)Nc3ccccc3)n2-c2ccccc2)cc1 -16%
Cc1ccc(-n2nnc(-c3nsc(NC(=O)c4cccc(Cl)c4)n3)c2C)cc1C -21.4%
O=C(CSc1n[nH]c(-c2ccccc2)n1)NCCCc1ccccc1 -0.824%
COc1cc(Cl)c(C)cc1NC(=O)c1ccc2c(SCC(=O)O)c3c(nc2c1)CCCC3 -16.8%
Cc1nnc(N2CCCC(C(=O)NCc3ccccc3F)C2)c2nn(-c3ccc(Cl)cc3)c(C)c12 (stereo unspecified) -13.3%
COc1ccc(NC(=O)CCSc2nc(-c3ccco3)cc(C(F)(F)F)n2)cc1 -6.22%
Cc1ccc(C)c(Nc2ncnc3onc(C)c23)c1 -4.55%
COc1ccc(NC(=O)CSc2ncccc2C(=O)O)cc1OC -13.5%
COc1ccc(-c2nc3cc(C(C)C)ccc3o2)cc1NC(=O)COc1ccc(C)cc1C -2.68%
CCN(CC)CCNC(=O)c1ccc2c(c1)NC(=O)C(CS(=O)(=O)Cc1cccc(Br)c1)N2 (stereo unspecified) 16%
O=C(Cn1c(=O)c2ccccc2n(CC(=O)Nc2ccc(F)cc2F)c1=O)NCCc1ccccc1 -15.2%
CCN(C(=O)c1cc2c(=O)oc3ccc(C)cc3c2s1)c1cc(OC)ccc1OC -7.43%
CCc1ccc(OCCCn2c(-c3ccc(Cl)cc3)nc3ccccc3c2=O)cc1 -5.08%
Cc1ccc(-c2nc3scc(CCNS(=O)(=O)c4ccc(F)c(C)c4)n3n2)cc1 3.28%
CCn1nc(C)c2c(-c3ccccc3)cc(=O)n(C(C)C(=O)NCc3cccc(OC)c3)c21 (stereo unspecified) -17%
CCC1CCCCN1CCCNC(=O)c1ccc2c(c1)N(Cc1ccccc1)C(=O)c1ccccc1S2(=O)=O (stereo unspecified) 2.58%
CCOc1cccc(CC(=O)N2CCc3c([nH]c4ccccc34)C2c2ccccc2)c1OCC (stereo unspecified) -9.58%
CCN(CC)c1ccc(CN(C(=O)Cc2coc3ccc(C)cc23)C2CCS(=O)(=O)C2)cc1 (stereo unspecified) -25.5%
COc1ccc(C(=O)Nc2cc(C(C)C)c(O)c(S(=O)(=O)c3ccc(Cl)cc3)c2C)cc1 -2.09%
CCN(Cc1ccccc1)Cc1c(O)ccc2c(=O)c(-c3ccccc3)c(C(F)(F)F)oc12 -18.6%
CCOc1ccccc1CNCc1c(C(=O)O)c(C)n(Cc2ccc(Cl)cc2)c1C -5.73%
c1ccc(-c2nnc(CN3CCN(c4ccccn4)CC3)o2)cc1 -8.94%
Cc1ccc(Cl)cc1NC(=O)CSc1ccc(C(=O)O)cn1 -9.82%
CCN(CC)c1ccc(NC(=O)c2cc(C)nc3c2c(C)nn3-c2cccc(F)c2)c(C)c1 -2.37%
CCC1CN(C(=O)N2CCC(C(=O)NCCc3ccccc3C)CC2)c2ccccc2O1 (stereo unspecified) -1.4%
O=C1CC(c2ccccc2)Sc2nc(-c3ccc(F)cc3)nn21 (stereo unspecified) -15.2%
O=C(c1[nH]c2ccccc2c1Sc1ccc(Cl)cc1)N1CCCCC1 -23.3%
Cc1ccc(OCC(=O)OCc2cc(=O)n3nc(C4CCCCC4)sc3n2)cc1C -8.29%
Cc1ccccc1NC(=O)Cn1c(=O)n(CC2CCC(C(=O)NCCc3ccccc3)CC2)c(=O)c2ccccc21 (stereo unspecified) -1.64%
CCOc1ccccc1C(=O)Nc1nc2c(s1)CC(C)CC2 (stereo unspecified) -8.88%
COc1ccc(Cl)cc1NC(=O)Cn1c(=O)n(CCC(=O)NCc2ccc3c(c2)OCO3)c(=O)c2ccccc21 -7.97%
Cc1ccc(N2C(=O)[C@@H]3CSC(c4ccc(F)cc4)N3C2=O)cc1 (stereo partly specified) -2.37%
Nc1c(C(=O)Nc2ccccc2)nnn1Cc1ccc(F)cc1Cl -18.8%
Cc1ccc(CNS(=O)(=O)c2ccc(-c3cc(C(F)(F)F)on3)s2)cc1 -9.87%
COc1cccc(-n2c(SCC(=O)c3ccc(Cl)cc3)nc3c([nH]c4ccccc43)c2=O)c1 -18.5%
CSc1ccc(CNC(=O)c2ccc(NC(=O)c3nsc4ccccc34)cc2)cc1 -24.8%
O=C(NCc1ccccc1Cl)NCc1noc2ccccc12 -17.4%
COC(=O)Cn1c(=O)c2c(nc3n2CCN3c2ccc(F)cc2)n(C)c1=O 3.73%
Cc1nn(C(C)(C)C)c(OC(=O)C(C)(C)C)c1Sc1ccccc1 -6.54%
Cc1ccc(C(=O)Nc2cc3c(cc2N2CCCC2)n(C)c(=O)c(=O)n3C)cc1 -3.9%
COc1cc(NC(=O)COCc2cc(-c3ccc(F)cc3)on2)cc(OC)c1OC -19.2%
O=C(Nc1ccc(Cl)c(-c2nc3cc(Cl)ccc3o2)c1)c1cc([N+](=O)[O-])ccc1N1CCOCC1 -18.7%
COc1cccc(NC(=O)C2CCCN(S(=O)(=O)c3ccc4[nH]c(=O)ccc4c3)C2)c1 (stereo unspecified) -9.18%
COc1ccccc1N1CCN(c2nc(-c3ccc(C)cc3)nc3ccccc23)CC1 -7.9%
CC(C)(C)NC(=O)[C@H]1CC[C@H]2[C@@H]3CC[C@H]4NC(=O)C=C[C@]4(C)[C@H]3CC[C@]12C -13.3%
Cn1cc(C(=O)N2CCN(c3cccc(C(F)(F)F)c3)CC2)c2c3ccccc3n(C)c2c1=O -13.2%
O=C(O)CCn1cnc2onc(-c3cc(F)cc(F)c3)c2c1=O 7.47%
CCCOc1ccc(Oc2nc(NCC(C)C)nc(N3CCOCC3)n2)nn1 -7.68%
CCOc1ccc(-c2cc3c(=O)n(CC(=O)NCc4ccc(Cl)cc4)ccn3n2)cc1 -3.88%
CC(=O)Nc1ccc(NC(=O)Cn2nc(C(=O)Nc3ccc(C)cc3)ccc2=O)cc1 -17.1%
Cc1ccc(-n2c(SCC(=O)O)nc3sc4c(c3c2=O)CCCC4)cc1 -25.6%
O=C(Nc1ccc(OCc2cc(=O)n3c4c(sc3n2)CCCC4)cc1)c1ccccc1 -8.76%
CC1CCc2nc3ncn(Cc4ccccc4F)c(=O)c3cc2C1 (stereo unspecified) -24.9%
COc1ccc(NC(=O)CN(c2ccc(C)cc2)S(=O)(=O)c2cccc3nonc23)cc1OC -12.7%
COc1ccc(N2CC(NC(=O)c3ccc4c(c3)OCO4)CC2=O)cc1 (stereo unspecified) -10.6%
CCOc1ccc(NC(=O)CN(c2ccc(Cl)cc2C)S(=O)(=O)c2ccccc2)cc1 -4.49%
CCOc1ccc(OCC)c(NS(=O)(=O)c2c(C(=O)N3CCC(C)CC3)c(C)n(C)c2C)c1 -25.9%
CCCOc1c(Cl)cc(C(=O)N(Cc2cccc(OC)c2)C2CCS(=O)(=O)C2)cc1Cl (stereo unspecified) -17.8%
